# According to the supplement of paper PMC8728848:
# Some of the results follow.
# B1: PitA (Streptococcus oralis), G3F8D8 (protein)
# chain: MNIRFDFKKVQIIARRLVTLLAILFLCAPISLLNADSTTEPQTTLHKTITPISGQDDKYELSLDITSKLGTETQTDPLDVVLVADLSGSMQNQDVQSFDGRTISRIDALKNTLRGTNGRKGLIDTILSNSNNRLSMVGFGGKIDNKKVDQYWDGNKWRLFRPYWPYERMTKYYDGVSPWDDANTILGWSNNARAAKTAVYNMSIAGGNSIGTESGIGTGTNIGAGLTLANQLMGSARSNAKKVVILLSDGFANMVYDANGYTIYNYNNEDPNIETAPQWFWDRLNNNLNSLSYSLAPTLDGFYSIKFRYSNNVDSITSLQYYMRQHNASIPNEIFSANDEDQLRDSFKDITDKILPLGIHHVSIKDVLSKYVQLLPNGSSEFRVVKEKDGSSEILIENQVTFDTKTTSEGLVEVTAKFSPNYSLEDGARYVLKFTVTSSQEALDAIAGDKKLEAGDAEGSDVNKLYSNKGASVTYSYGIGNSQTKTKEYSDNPTFKPSDPLTVPVEVEWQGVTGARTVITADQPSNVELKLVQKNKNGGSDNQDYRKTNVNVSKNVSNETRNFEKVAKGYQYDLIAPDVPAFTKEIKNVGTESKPSFKVIYKQLPSLTIKKVLEAENNLNKEFRIKVKLTSPDSKPLNGTFGEITVVNGEAEIRVEKRKRWEGILSYLPRGTHYKVEEEAASTNGYHVTYENQEGDLNKDETSIVTNHKLPSLSVTKKVTGVFANLLKSFKITINIRDAQNSPLNGTYTATVNNKRTPLQFTNGRASIDLNKDQTIKIYGLPLDSHYTVEEESNSSRGYQVSYENQEGKLDGDKSATVTNNKNSVPETGVDFLSSTLMLGIILPLGGIFFTILLGYLVVHRRK
# Experiments:
# Assay in all cases: glycan array binding signal (z-score within array); higher = stronger binding
# Settings in all cases: glycan notation: IUPAC condensed, linker removed
# [1] = biological target: Neu5Ac(a2-3)[GalNAc(b1-4)]Gal(b1-4)Glc
# How it was run: (§1)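 Glycan array data were curated from 3228 arrays in the Consortium for Functional Glycomics database and kept only where the protein sequence was available. Glycan names were converted to IUPAC-condensed notation, and columns mapping to the same glycan were averaged. The binding signal is a within-array Z-score, averaged across arrays of the same protein sequence at different concentrations or buffers and across linkers. Negative Z-scores can be read as non-binding.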
# [2] = biological target: Neu5Ac(a2-3)[GalNAc(b1-4)]Gal(b1-4)GlcNAc
# How it was run: as §1
# [3] = biological target: Neu5Ac(a2-3)[GalNAc(b1-4)]Gal(b1-4)GlcNAc(b1-3)GalNAc
# How it was run: as §1
# [4] = biological target: Neu5Ac(a2-3)[Neu5Ac(a2-6)]GalNAc
# How it was run: as §1
# Neu5Ac(a2-6)Gal = biological target: Neu5Ac(a2-6)Gal
# How it was run: as §1
# [5] = biological target: Neu5Ac(a2-6)Gal(b1-3)GlcNAc(b1-3)[Gal(b1-4)GlcNAc(b1-6)]Gal(b1-4)Glc
# How it was run: as §1
# Neu5Ac(a2-6)Gal(b1-4)Glc = biological target: Neu5Ac(a2-6)Gal(b1-4)Glc
# How it was run: as §1
# [6] = biological target: Neu5Ac(a2-6)Gal(b1-4)GlcNAc
# How it was run: as §1
# [7] = biological target: Neu5Ac(a2-6)Gal(b1-4)GlcNAc(b1-2)Man(a1-3)Man(b1-4)GlcNAc(b1-4)GlcNAc
# How it was run: as §1
# [8] = biological target: Neu5Ac(a2-6)Gal(b1-4)GlcNAc(b1-2)Man(a1-3)[Gal(b1-4)GlcNAc(b1-2)Man(a1-6)]Man(b1-4)GlcNAc(b1-4)GlcNAc
# How it was run: as §1
# [9] = biological target: Neu5Ac(a2-6)Gal(b1-4)GlcNAc(b1-2)Man(a1-3)[GlcNAc(b1-2)Man(a1-6)]Man(b1-4)GlcNAc(b1-4)GlcNAc
# How it was run: as §1
# [10] = biological target: Neu5Ac(a2-6)Gal(b1-4)GlcNAc(b1-2)Man(a1-3)[GlcNAc(b1-2)Man(b1-4)GlcNAc(b1-2)Man(a1-6)]Man(b1-4)GlcNAc(b1-4)GlcNAc
# How it was run: as §1
# [11] = biological target: Neu5Ac(a2-6)Gal(b1-4)GlcNAc(b1-2)Man(a1-3)[Man(a1-6)]Man(b1-4)GlcNAc(b1-4)GlcNAc
# How it was run: as §1
# [12] = biological target: Neu5Ac(a2-6)Gal(b1-4)GlcNAc(b1-2)Man(a1-3)[Neu5Ac(a2-6)Gal(b1-4)GlcNAc(b1-2)Man(a1-6)]Man(b1-4)GlcNAc(b1-4)GlcNAc
# How it was run: as §1
# [13] = biological target: Neu5Ac(a2-6)Gal(b1-4)GlcNAc(b1-2)Man(a1-3)[Neu5Ac(a2-6)Gal(b1-4)GlcNAc(b1-2)Man(a1-6)]Man(b1-4)GlcNAc(b1-4)[Fuc(a1-6)]GlcNAc
# How it was run: as §1
# [14] = biological target: Neu5Ac(a2-6)Gal(b1-4)GlcNAc(b1-2)Man(a1-6)Man(b1-4)GlcNAc(b1-4)GlcNAc
# How it was run: as §1
# [15] = biological target: Neu5Ac(a2-6)Gal(b1-4)GlcNAc(b1-2)Man(a1-6)[Gal(b1-4)GlcNAc(b1-2)Man(a1-3)]Man(b1-4)GlcNAc(b1-4)GlcNAc
# How it was run: as §1
# [16] = biological target: Neu5Ac(a2-6)Gal(b1-4)GlcNAc(b1-2)Man(a1-6)[GlcNAc(b1-2)Man(a1-3)]Man(b1-4)GlcNAc(b1-4)GlcNAc
# How it was run: as §1
# [17] = biological target: Neu5Ac(a2-6)Gal(b1-4)GlcNAc(b1-2)Man(a1-6)[Man(a1-3)]Man(b1-4)GlcNAc(b1-4)GlcNAc
# How it was run: as §1
# [18] = biological target: Neu5Ac(a2-6)Gal(b1-4)GlcNAc(b1-3)Gal(b1-3)GlcNAc
# How it was run: as §1
# [19] = biological target: Neu5Ac(a2-6)Gal(b1-4)GlcNAc(b1-3)Gal(b1-4)GlcNAc
# How it was run: as §1
# [20] = biological target: Neu5Ac(a2-6)Gal(b1-4)GlcNAc(b1-3)Gal(b1-4)GlcNAc(b1-3)Gal(b1-4)GlcNAc
# How it was run: as §1
# [21] = biological target: Neu5Ac(a2-6)Gal(b1-4)GlcNAc(b1-3)Gal(b1-4)[Fuc(a1-3)]GlcNAc(b1-3)Gal(b1-4)[Fuc(a1-3)]GlcNAc
# How it was run: as §1
# [22] = biological target: Neu5Ac(a2-6)Gal(b1-4)GlcNAc(b1-3)GalNAc
# How it was run: as §1
# [23] = biological target: Neu5Ac(a2-6)Gal(b1-4)GlcNAc(b1-3)[Neu5Ac(a2-6)Gal(b1-4)GlcNAc(b1-6)]GalNAc
# How it was run: as §1
# [24] = biological target: Neu5Ac(a2-6)Gal(b1-4)GlcNAc(b1-6)GalNAc
# How it was run: as §1
# [25] = biological target: Neu5Ac(a2-6)Gal(b1-4)GlcNAc(b1-6)[Gal(b1-3)GlcNAc(b1-3)]Gal(b1-4)Glc
# How it was run: as §1
# [26] = biological target: Neu5Ac(a2-6)Gal(b1-4)GlcNAc6S
# How it was run: as §1
# Neu5Ac(a2-6)GalNAc = biological target: Neu5Ac(a2-6)GalNAc
# How it was run: as §1
# [27] = biological target: Neu5Ac(a2-6)GalNAc(b1-4)GlcNAc
# How it was run: as §1
binder,measurement,setting,value
B1,glycan array binding signal (z-score),[1],-0.285
same,glycan array binding signal (z-score),[2],0.347
same,glycan array binding signal (z-score),[3],0.025
same,glycan array binding signal (z-score),[4],-0.488
same,glycan array binding signal (z-score),Neu5Ac(a2-6)Gal,-0.517
same,glycan array binding signal (z-score),[5],-0.298
same,glycan array binding signal (z-score),Neu5Ac(a2-6)Gal(b1-4)Glc,-0.522
same,glycan array binding signal (z-score),[6],-0.635
same,glycan array binding signal (z-score),[7],-0.247
same,glycan array binding signal (z-score),[8],-0.337
same,glycan array binding signal (z-score),[9],-0.428
same,glycan array binding signal (z-score),[10],-0.315
same,glycan array binding signal (z-score),[11],-0.483
same,glycan array binding signal (z-score),[12],-0.406
same,glycan array binding signal (z-score),[13],0.33
same,glycan array binding signal (z-score),[14],-0.428
same,glycan array binding signal (z-score),[15],-0.302
same,glycan array binding signal (z-score),[16],-0.431
same,glycan array binding signal (z-score),[17],0.537
same,glycan array binding signal (z-score),[18],0.421
same,glycan array binding signal (z-score),[19],-0.602
same,glycan array binding signal (z-score),[20],-0.155
same,glycan array binding signal (z-score),[21],0.046
same,glycan array binding signal (z-score),[22],0.626
same,glycan array binding signal (z-score),[23],-0.074
same,glycan array binding signal (z-score),[24],1.61
same,glycan array binding signal (z-score),[25],-0.053
same,glycan array binding signal (z-score),[26],-0.494
same,glycan array binding signal (z-score),Neu5Ac(a2-6)GalNAc,-0.617
same,glycan array binding signal (z-score),[27],-0.48
